# According to PubChem BioAssay (NCI):
# Some compounds were tested as several samples or in several runs, with calls that do not always agree.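 96-well plates, one dose, 48 hours. Percent growth reported; active if below 10.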 Not every entry of the source has a single result; some have several. The list is limited to them. There may be further records. These are repeated runs of one drug, at its own concentration, as given; each value is one run. Brackets with × say how often a value occurs here.
# What was measured:
# SK-MEL-28 melanoma = experiment: NCI-60 one-dose screen, 48 h (100 = growth as untreated, 0 = no growth, -100 = all killed); conditions: 2.5 mM
# SK-MEL-2 melanoma = experiment: as above; conditions: 2.5 mM
smiles,measurement,setting,value
O=c1[nH]cc(F)c(=O)[nH]1,growth,SK-MEL-28 melanoma; runs of 1992,"inactive: 27.1, 26.7 (2×), 20.4, 35.7 (2×), 21.7 (2×), 20.3, 39.2, 27.8, 36.2, 38, 37.4, 17.3, 27.4, 30.2, 13, 31.7, 24.2, 29.8 (2×), 32.1, 41.6, 29.4, 24.6, 31.9, 24.9 (3×), 19.9 (3×), 29.7, 30.9, 30.3, 38.9, 28 (2×), 43.9, 23.4, 30.4, 33, 31.5, 43.2, 33.7, 38.8, 28.3, 35.9, 53.1, 27.2, 33.8, 36.7, 114, 23, 43.8, 44.5, 34.5, 39.6, 28.7, 27.9, 16.1, 15.2, 31.4, 30, 30.7, 37.2, 19.1, 62.2, 26.4 (2×), 31, 29.6, 38.6, 43, 17.9, 45.1, 30.1, 18.9, 15.4, 31.8, 43.1, 44.7, 20.5, 36, 16.4, 38.7, 26.2, 31.1, 11.3, 36.4, 10.7, 15.6, 24.4, 20.7, 16.2, 25 (2×), 30.6, 14.4, 27, 16.6, 32.6, 25.7, 25.9, 20, 24.3, 10.6, 54.4, 18.5, 41.5, 14.6% and active: -3.04, 8.68, 5.31, -22.2, 3.48, -37.2, 7.5, 9.47, -10.9, 6.43%"
same,growth,SK-MEL-28 melanoma; runs of 1993,"inactive: 34.1, 31.4, 31.6, 48.8, 33.8, 23.8, 38.1, 26.7, 16.8, 23, 29.9, 40.5, 11.3, 31, 36.6, 38.6, 16.4, 36.5, 36.8 (2×), 44.6, 29.4, 43.4, 25.3, 22.4, 28.2, 21.4, 18, 47, 22, 21.8, 18.5, 87.6, 32.5, 18.7, 97.7, 12.2, 34.2, 16.7, 28.4, 41.6, 37.1% and active: 7.71, -0.7, 9.6, 8.41, 5.18%"
same,growth,SK-MEL-28 melanoma; runs of 1994,"inactive: 24.8, 19.8, 20.8, 24.4, 28.9, 25, 30.9, 39.2, 40.5, 38.1, 34.8, 12.6, 17.1, 18.9, 48.8, 40.8, 46.4, 26, 35.9, 16, 35.8, 39.1, 52.1, 49.6, 42.4, 54.4, 45.3, 39.7, 15.1, 28.1, 22.1% and active: 8.03%, -15.3%"
same,growth,SK-MEL-28 melanoma; runs of 1995,"inactive: 60.6, 21.6, 42.3, 55.5, 32.8, 20.8, 36.6 (2×), 36.3, 25.2, 42.8, 28.1, 43.3, 45, 47.2, 22.5, 31.5, 44.7, 45.1, 52.5, 25.7, 24.7, 40.4, 41.6, 28.5, 48.4, 24.1, 33.5, 36.9, 13.7, 32.2, 35.3, 26, 20.9, 29, 38.8% and active: -0.226%"
same,growth,SK-MEL-28 melanoma; runs of 1996,"inactive: 44.4, 32.1, 44.1, 45.4, 34.8, 25.1, 31.2, 32.7, 28.9, 31.9, 42.2, 30.7, 58.2, 46.4, 43.7, 33.9, 15.2, 36.9, 29.8, 28.6, 45, 35 (2×), 22.6, 38.6, 57.5, 38, 37.6, 36.4, 42.7, 44.3, 47.4, 22.1, 25.6, 41.7, 52, 27.9, 46.8, 50.8, 31.1, 23, 37.1, 71.4, 34.7, 26.2, 37.9, 27.4, 47.8%"
same,growth,SK-MEL-28 melanoma; runs of 1997,"inactive: 29.6 (2×), 47.8, 14.4, 90.3, 43.6, 39.3 (2×), 30.5, 18.1 (2×), 48.5, 37.1, 32.9, 37.9, 13.1 (2×), 32.3, 36, 39.1, 44.6, 42.1, 22.4, 40.1, 32.7, 30.9, 31.5, 22.1, 30, 17.6, 31.7, 20.8, 10.7, 32.4, 23.4, 15.5, 42.8, 31.4, 39% and active: -100, -4.83, 3.6, 1.47, -12.1, 5.04%"
same,growth,SK-MEL-28 melanoma; runs of 1998,"active: -13.2, -5.09, 2.4, -11.3, 1.58% and inactive: 41.7, 27.2 (2×), 28.8, 64.2, 24.4, 26.5, 33.5, 23.3, 19.5, 36.3, 44.5, 27, 21.7, 32.8, 39.7, 40.6, 34.8%"
same,growth,SK-MEL-28 melanoma; runs of 1999,"inactive: 67.9, 41.2, 18.9, 11.1, 47.9, 60.3, 23.1, 15, 14.3% and active: -38.8, 2.15, 2.85, 4.22, 3.23%"
same,growth,SK-MEL-28 melanoma; runs of 2000,"inactive: 12.7% and active: 3.45%, 5.27%, -15.2%"
same,growth,SK-MEL-2 melanoma; runs of 1991,"inactive: 49.3, 35.6, 49, 45.6, 47.6, 41.6, 42.6, 102, 44, 117, 27.8, 22, 31.8, 51.8, 43.9, 46.7, 36.9, 22.6, 19.6, 52.1%"
same,growth,SK-MEL-2 melanoma; runs of 1992,"inactive: 28.6, 26.4, 28.2, 32.9, 70.6, 24.9 (2×), 23.9 (2×), 22.2 (2×), 30.2, 118, 45.4, 26.9, 86.6, 29.6 (2×), 29.7, 26.3, 19.6, 24.5, 25.5, 15.7, 48.8, 51.9, 145, 128, 33.1, 26, 54.3, 33.7 (2×), 22.8, 23.5 (2×), 25, 33, 27.5 (2×), 30.4, 22.5, 39.4, 32.4 (2×), 26.2, 36.6, 44.3, 59.6, 42.8, 35.8, 36.7, 17, 43.7, 41.7, 22.1, 47.7, 37.7, 34, 39.3, 35.5, 28.5, 24.8, 39.6, 29.4, 32.2, 34.8, 28.1, 46.2, 49.9, 39.1, 28.3, 28.9, 23.1, 34.4, 25.8, 15, 30.7, 36.1, 40.6, 23.4, 35.7, 78.6, 43.3 (2×), 44.8, 35.4, 30.6, 42.5, 18, 58, 19.7, 33.5, 21.8, 21.1, 55.3, 34.2, 25.1, 44.2, 57.1% and active: 2.72, 3.46, 6.54, 9.88, -6.94, -5.92, -13.8, -27.7, -9.67, 2.13, 9.19, 2.89, -30.3, 3.29%"
same,growth,SK-MEL-2 melanoma; runs of 1993,"inactive: 28.6, 24.4, 40, 18.2, 17.2, 55.8, 125, 32.3, 25.4, 29.6, 64.8, 29.4, 44.1, 37.5, 12.4, 39.9, 58.6, 17.3, 22.9, 48.2, 36.4, 38.1, 44.2, 32.1, 21, 47.3, 35.2, 41.3% and active: -1.3%, -9.78%"
same,growth,SK-MEL-2 melanoma; runs of 1994,"inactive: 41.3, 75.7, 25.7, 29.8, 12.6, 66.2, 40.5, 43.4, 55.2, 45.1, 52.4, 66.8, 32.3, 19.1, 10.4, 12, 25.3, 25.6, 55.8, 53.2, 53.7, 65, 40.9, 53.9% and active: -0.385%, -7.37%"
same,growth,SK-MEL-2 melanoma; runs of 1995,"inactive: 37.1, 21.6, 17.2, 24.7, 17.7, 28.7, 33.7, 41.9, 26.4, 30, 34.2, 43.4, 27.1, 28.9, 29.3 (2×), 33.4, 58.6, 105, 68.9, 39.7, 40.4, 54.7, 42.1, 52.8, 40.6, 56.7, 75.5, 48, 28.5, 43.6, 64.3, 75.9, 20.1, 43.1% and active: 2.17%"
same,growth,SK-MEL-2 melanoma; runs of 1996,"inactive: 54.5, 34.4 (3×), 57, 51.3, 50.9, 47.4 (2×), 45.9, 40.5, 66.1, 57.5, 31.9, 45, 38.4, 42.2, 34.6, 40.6 (2×), 48.7, 33.7, 39.6, 32.2, 46, 29.9, 55.4, 36.4, 45.7, 44.4, 31.2, 60.1, 61.7, 73.1, 52.6, 34 (2×), 47.7 (2×), 32.7, 53.9, 42.3, 58.9, 51.2, 44.5, 30.8, 54.1, 35, 55.5, 42.4, 49.4, 67.3, 63.3, 67.7, 52.5, 28.5, 36.3, 43.9%"
